Results taken from PubChem BioAssay AID485281 (National Center for Advancing Translational Sciences (NCATS), 2010).
Screen size: about 350,000 compounds; about 260 (0.074%) were called active. The shares of active, inactive and inconclusive entries below differ from those in the screen. Calls come from the whole dose curve; as a rule, active = well fitted inhibition curve with a large enough effect; inconclusive = small, poorly fitted or top-dose-only effect; inactive = no such curve, though single readings can be large or run the other way. A potency beside an inconclusive call is a rough fit, not a confirmed value.
% is set by controls: 0 for no effect and ±100 for the full control effect; potency is the fitted concentration of half-maximal effect; tags give direction and shape of the fitted curve.
Note: nearly all actives have a fitted effect of over 20% in size.

These compounds were tested against Ferritin light chain (Equus caballus) (UniProt P02791) (assay: qHTS Assay for Identification of Novel General Anesthetics). Conditions: apoferritin/1-aminoanthracene competitive binding, fluorescence; activity change, negative = displacement: at 77.5 µM (top of the series).
Sequence of UniProt P02791 (P02791 whole entry, looked up): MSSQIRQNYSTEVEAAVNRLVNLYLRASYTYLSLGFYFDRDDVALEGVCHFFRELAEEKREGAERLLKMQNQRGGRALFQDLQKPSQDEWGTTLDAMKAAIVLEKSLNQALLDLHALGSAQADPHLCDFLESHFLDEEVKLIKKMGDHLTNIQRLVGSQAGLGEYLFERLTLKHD
Procedure, shortened: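 Horse-spleen apoferritin (10 uM) in 50% saturated 1-aminoanthracene in PBS was incubated 10 min at room temperature with compound. Fluorescence (ex 380, em 535 nm) was normalized to free and bound 1-AMA, with concentration-response fitted by a four-parameter Hill equation.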
In the case of `COC(=O)C1=C(COc2ccc(F)cc2)NC(=O)NC1c1ccc(C)cc1C` (centres undefined), the Potency is reported as inconclusive: 11.2 µM [inhibitor, partial curve]. With `CCOC(=O)c1nnn(-c2nonc2N)c1CSc1ccc(C)cc1` the Potency was inconclusive: 25.1 µM [inhibitor, partial curve]. In the case of `COc1ccc2[nH]c3c(c2c1)CCN1C(=O)N([C@@H](C)C(=O)NCc2ccc(F)cc2)C(=O)[C@]31C`, the Potency is reported as inconclusive: 14.1 µM [inhibitor, partial curve]. With `CC(C)CCOc1ccc(C2(C)NC(=O)NC2=O)cc1` (centres undefined) the Potency was inconclusive: 14.1 µM [inhibitor, partial curve]. With `C(=C\c1nc(-c2cccnc2)no1)/c1ccccc1` the “activity change, negative = displacement” value was inactive: -12.5%. In the case of `COc1ccc(-c2nnc(SCC(=O)Nc3cc(F)ccc3C)o2)cc1`, the “activity change, negative = displacement” value is reported as inactive: -6.29%. With `C/C(CC(=O)Nc1ccc(Cl)c(Cl)c1)=N\NC(N)=S` the “activity change, negative = displacement” value was inactive: -21.6%. For `CCOc1ccc(C(=O)NCc2nc3cccnc3n2Cc2cccc(OC)c2)cc1`, the “activity change, negative = displacement” value was inactive: -6.2%. In the case of `COc1ccc(-c2cc(-c3c(O)c(OC)c4occc4c3OC)[nH]n2)cc1`, the Potency is reported as inconclusive: 28.2 µM [inhibitor, single point]. With `Nc1cc(=O)[nH]c(SC/C=C/c2ccccc2)n1` the “activity change, negative = displacement” value was inactive: -23.6%. `CCOc1ccc(C2=NNC(c3cccnc3)=Nc3ccc(OC)cc32)cc1` was tested, and the Potency was inconclusive: 31.6 µM [inhibitor, partial curve]. In the case of `CN(C)S(=O)(=O)Oc1cccc(C(=O)Nc2ccccc2Cl)c1`, the “activity change, negative = displacement” value is reported as inactive: -16.9%. With `CCOc1ccc(-n2c(SCc3ccc(C#N)cc3)nnc2-c2cccnc2)cc1` the Potency was inconclusive: 25.1 µM [inhibitor, single point]. With `Cc1ccc(C(=O)Oc2ccc(Cl)c3cccnc23)cc1[N+](=O)[O-]` the Potency was inconclusive: 31.6 µM [inhibitor, partial curve]. For `C[n+]1cc[nH]c1SCC(=O)c1ccccc1`, the Potency was inconclusive: 44.7 µM [inhibitor, single point]. In the case of `CCOC(=O)c1c(NC(=O)C2=C(C)NC(=S)NC2c2ccccc2C(F)(F)F)sc(C)c1C` (centres undefined), the “activity change, negative = displacement” value is reported as inactive: 0.387%. In the case of `CCCN(C(=O)Cn1ncc2c1-c1ccccc1OC2)c1cccc(C)c1`, the “activity change, negative = displacement” value is reported as inactive: 42.2%. In the case of `O=C(Nc1ccc2c(c1)OCCO2)c1ccc(Br)c(S(=O)(=O)N2CCOCC2)c1`, the Potency is reported as inconclusive: 44.7 µM [inhibitor, single point]. In the case of `Cc1cccc(C(=O)NC(=S)NNC(=O)COc2c(C)cccc2C)c1`, the “activity change, negative = displacement” value is reported as inactive: -11.4%. With `COc1ccc(CCNC(=O)c2nc(SCc3ccccc3F)ncc2Cl)cc1OC` the Potency was inconclusive: 35.5 µM [inhibitor, partial curve]. In the case of `O=C(CSc1nccn1C1CCCC1)Nc1cccc(F)c1`, the “activity change, negative = displacement” value is reported as inactive: 5.18%. In the case of `Cc1ccc2nc(N(CCCN(C)C)C(=O)CN3C(=O)c4ccccc4C3=O)sc2c1`, the “activity change, negative = displacement” value is reported as inactive: -20.9%. In the case of `COc1cccc2c1OCC([C@@H]1C[C@H]3CN(Cc4cccc(Cl)c4)C(=O)[C@]34CCCN14)=C2`, the Potency is reported as inconclusive: 28.2 µM [inhibitor, partial curve]. For `CCCCCCCC(=O)OCC(=O)[C@@]1(O)CC[C@H]2[C@@H]3CCC4=CC(=O)CC[C@]4(C)[C@H]3[C@@H](O)C[C@@]21C`, the Potency was inconclusive: 3.55 µM [inhibitor, full curve]. `Cc1ccc(C2=NNC(=Nc3ccc(F)cc3)SC2)cc1` was tested, and the Potency was inconclusive: 22.4 µM [inhibitor, partial curve]. `Cc1ccc(OCC(=O)Nc2ccc(C(=O)O)cc2NC(=O)COc2ccc(C)c(C)c2)cc1C` was tested, and the Potency was inconclusive: 14.1 µM [inhibitor, partial curve]. `CC(=O)Nc1ccc(N2C(=O)c3ccc(S(=O)(=O)c4ccc(C(=O)O)cc4)cc3C2=O)cc1` was tested, and the Potency was inconclusive: 31.6 µM [inhibitor, partial curve]. For `O=C(NC(Cc1ccccc1)C(=O)N1CCCCCC1)c1ccccc1` (centres undefined), the Potency was inconclusive: 3.16 µM [inhibitor, full curve, poor fit]. With `CCCSc1nnc(-c2cnn(-c3ccccc3)c2-n2cccc2)n1C` the Potency was inconclusive: 31.6 µM [inhibitor, single point]. With `COC(=O)CSc1ncc2c(n1)-c1ccccc1N(Cc1ccccc1C)S2(=O)=O` the Potency was inconclusive: 0.891 µM [inhibitor, full curve, poor fit]. `CCCc1c(C(=O)OCC)[nH]c2c1C(=O)CCC2` was tested, and the “activity change, negative = displacement” value was inactive: -9.44%. For `CCOc1ccc(NC(=O)COC(=O)Cc2ccc(S(=O)(=O)N3CCOCC3)s2)cc1`, the Potency was inconclusive: 35.5 µM [inhibitor, partial curve]. In the case of `COc1ccc(N2C(=NC(=O)C3CCCCC3)SC3CS(=O)(=O)CC32)cc1Cl` (centres undefined), the Potency is reported as inconclusive: 35.5 µM [inhibitor, single point]. In the case of `CC1CCCCC1NC(=O)COC(=O)c1ccc2ccccc2n1` (centres undefined), the Potency is reported as inconclusive: 3.55 µM [inhibitor, partial curve]. `CC(=O)c1ccc(NC(=O)Nc2ccc(NS(=O)(=O)c3ccc(C)cc3)cc2)cc1` was tested, and the Potency was inconclusive: 15.8 µM [inhibitor, partial curve]. For `CC1CCCCN1CC(=O)Nc1ccc(Oc2ccccc2)cc1` (centres undefined), the Potency was inconclusive: 22.4 µM [inhibitor, partial curve]. For `Cc1cc(OCC(=O)Nc2ccc3c(c2)OCCO3)ccc1Cl`, the Potency was inconclusive: 35.5 µM [inhibitor, partial curve]. `CN(C)S(=O)(=O)c1cccc(NC(=O)CC23CC4CC(CC(C4)C2)C3)c1` was tested, and the Potency was inconclusive: 12.6 µM [inhibitor, partial curve]. `CC(C)(C)CC(=O)NC(=S)Nc1ccccc1C(F)(F)F` was tested, and the Potency was inconclusive: 17.8 µM [inhibitor, partial curve]. With `COC(=O)c1ccc(NC(=O)CSCc2ccc(C)cc2)cc1` the Potency was inconclusive: 35.5 µM [inhibitor, single point]. In the case of `CCCCOc1ccc(C(=O)N/C(=C\c2cccc([N+](=O)[O-])c2)C(=O)OC(C)C)cc1`, the Potency is reported as inconclusive: 25.1 µM [inhibitor, partial curve]. With `CCNC(=O)CSC1=N/C(=C\c2ccc(O)c(OCC)c2)C(=O)N1c1ccc(OC(F)F)cc1` the Potency was inconclusive: 50.1 µM [inhibitor, single point]. `CC(=O)N/C(=C\c1ccccc1)C(=O)OCC(=O)NC(C)C12CC3CC(CC(C3)C1)C2` (centres undefined) was tested, and the Potency was inconclusive: 20 µM [inhibitor, single point]. With `O=c1cc(-c2ccc(Cl)c(Cl)c2)[nH][nH]1` the Potency was inconclusive: 28.2 µM [inhibitor, partial curve]. For `CCOC(=O)c1c(-c2cccc([N+](=O)[O-])c2)csc1NC(=O)C1CC1`, the Potency was inconclusive: 28.2 µM [inhibitor, partial curve]. With `CCC(=O)N1CCc2cc(S(=O)(=O)CCC(=O)Nc3ccc(OC(F)(F)F)cc3)ccc21` the “activity change, negative = displacement” value was inactive: -14%. With `C[n+]1ccc(/C=C/c2c[nH]c3ccc(F)cc23)cc1` the “activity change, negative = displacement” value was inactive: 126%. With `O=C(CS(=O)(=O)c1ccccc1)c1cc2cc(F)ccc2oc1=O` the “activity change, negative = displacement” value was inactive: -4.99%. For `CC(C)CC(CSc1ccc(Br)cc1)N1CCN(CCc2ccccc2)CCC1=O` (centres undefined), the “activity change, negative = displacement” value was inactive: 18.6%. For `CCOC(=O)c1c(-c2ccc(C)cc2)csc1NC(=O)c1cc2ccccc2oc1=O`, the Potency was inconclusive: 22.4 µM [inhibitor, partial curve]. For `CC(C)(c1ccccc1)c1ccc(OCCCNCCO)cc1`, the Potency was active: 11.2 µM. `Cc1ccc(S(=O)(=O)N(CC(O)CN2CCCCC2)c2ccccc2)cc1` (centres undefined) was tested, and the “activity change, negative = displacement” value was inactive: -17.2%. With `CCC1CCCCN1C(=O)CCCOc1ccccc1` (centres undefined) the Potency was inconclusive: 28.2 µM [inhibitor, partial curve]. In the case of `CCOC(=O)C1(N(CC)CC)Sc2cc(C)ccc2NC1=O` (centres undefined), the “activity change, negative = displacement” value is reported as inactive: -15.4%. In the case of `Cc1ccc(-c2c3c(nc4sc(C(N)=O)c(N)c24)CCC3)cc1`, the “activity change, negative = displacement” value is reported as inactive: -15.7%. For `CSc1cccc(NS(=O)(=O)c2cccs2)c1`, the Potency was inconclusive: 50.1 µM [inhibitor, single point]. In the case of `Cc1ccc(CSC2=Nc3ccccc3C3=NC(CCC(=O)NCc4ccco4)C(=O)N23)cc1` (centres undefined), the Potency is reported as inconclusive: 28.2 µM [inhibitor, partial curve]. For `Cc1ccc(Cl)cc1N1CCN(C(=O)c2ccc(NC(=O)c3nsc4ccccc34)cc2)CC1`, the “activity change, negative = displacement” value was inactive: 45.9%. For `CC1CCCN(C(=O)COC(=O)c2n[nH]c3ccccc23)C1` (centres undefined), the Potency was inconclusive: 22.4 µM [inhibitor, partial curve]. `Cc1ccc(NC(=O)c2oc3ccc(S(=O)(=O)N4CCC5(CC4)OCCO5)cc3c2C)cc1C` was tested, and the Potency was inconclusive: 22.4 µM [inhibitor, partial curve]. For `Cc1cc(C)cc(Nc2ncnc3nc[nH]c23)c1`, the “activity change, negative = displacement” value was inactive: -2.21%. For `O=C(COc1ccccc1)N1CCN(c2nnc(-c3ccccc3)c3ccccc23)CC1`, the Potency was inconclusive: 22.4 µM [inhibitor, partial curve]. In the case of `Cc1ccc(-c2ccc(=O)n(CC(=O)Nc3ccc(C)cc3Cl)n2)cc1`, the Potency is reported as active: 10 µM. `CCn1c(Cc2cccs2)nnc1SCC(=O)c1ccc(C)cc1` was tested, and the Potency was inconclusive: 31.6 µM [inhibitor, partial curve]. `Cc1cccc(CSC2=NCCN2C(=O)c2ccc(Br)o2)c1` was tested, and the Potency was inconclusive: 50.1 µM [inhibitor, partial curve]. For `O=C(O)C1CC(=O)N(c2ccc(OCc3ccccc3)cc2)C1` (centres undefined), the Potency was inconclusive: 56.2 µM [inhibitor, single point]. In the case of `O=C(CCC(=O)N1CCOc2ccccc21)Nc1ccccc1Br`, the Potency is reported as inconclusive: 25.1 µM [inhibitor, partial curve]. `O=C(CSc1nnc2c(n1)[nH]c1ccccc12)Nc1ccc2c(c1)OCO2` was tested, and the Potency was inconclusive: 28.2 µM [inhibitor, single point]. `C=CCn1c(SCC(=O)c2[nH]c(C)c(C(=O)OCC)c2C)nc2scc(-c3ccc(OC)c(OC)c3)c2c1=O` was tested, and the “activity change, negative = displacement” value was inactive: -0.624%.
